Test results taken from the supplement of paper PMC4967469.

Tests used:
Assay in all cases: Viability of human cancer cell lines after 72 h of drug (GDSC screen)
SN-38 = compound: CCc1c2c(nc3ccc(O)cc13)-c1cc3c(c(=O)n1C2)COC(=O)[C@]3(O)CC [SN-38]; settings: top dose 0.05 µM; top dose inferred
Procedure: (§1)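 Human cancer cell lines in 384-well plates, medium with 10% serum, drug for 72 h over a 256-fold dose range (nine 2-fold or five 4-fold steps up to the top dose). Adherent lines were fixed and stained with the nucleic acid dye Syto60, suspension lines read with resazurin; signal relative to control wells, capped at 0 and 100%. One two-parameter sigmoid per drug and line, fitted in a mixed model over all curves with the slope shared within a line.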

Axitinib = compound: CNC(=O)c1ccccc1Sc1ccc2c(/C=C/c3ccccn3)n[nH]c2c1 [Axitinib]; settings: top dose 2 µM
Procedure: as §1

Methotrexate = compound: CN(Cc1cnc2nc(N)nc(N)c2n1)c1ccc(C(=O)N[C@@H](CCC(=O)O)C(=O)O)cc1 [Methotrexate]; settings: top dose 0.2 µM
Procedure: as §1

Dabrafenib = compound: CC(C)(C)c1nc(-c2cccc(NS(=O)(=O)c3c(F)cccc3F)c2F)c(-c2ccnc(N)n2)s1 [Dabrafenib]; settings: top dose 10 µM
Procedure: as §1

Vorinostat = compound: O=C(CCCCCCC(=O)Nc1ccccc1)NO [Vorinostat]; settings: top dose 10 µM
Procedure: as §1

| Cell Line | AUC (SN-38) | IC50 (SN-38) [nM] | AUC (Axitinib) | IC50 (Axitinib) [nM] | AUC (Methotrexate) | IC50 (Methotrexate) [nM] | AUC (Dabrafenib) | IC50 (Dabrafenib) [nM] | AUC (Vorinostat) | IC50 (Vorinostat) [nM] |
| --- | --- | --- | --- | --- | --- | --- | --- | --- | --- | --- |
| RXF393 (kidney, adherent) | 0.623 | 7.76 | 0.893 | > 2000 | 0.978 | > 200 | 0.816 | 8530 |  |  |
| SAS (head and neck, adherent) | 0.288 | 0.726 | 0.961 | > 2000 | 0.957 | > 200 | 0.955 | > 10000 |  |  |
| SAT (head and neck, adherent) | 0.807 | 45.3 | 0.835 | > 2000 | 0.908 | > 200 | 0.8 | 8370 |  |  |
| SK-ES-1 (Ewing sarcoma, semi-adherent) | 0.374 | 1.37 | 0.937 | > 2000 | 0.509 | 13.3 | 0.948 | > 10000 |  |  |
| SK-HEP-1 (liver, adherent) | 0.361 | 1.32 |  |  | 0.943 | > 200 |  |  | 0.761 | 3340 |
| SK-MEL-30 (melanoma, adherent) | 0.671 | 9.66 |  |  | 0.964 | > 200 | 0.933 | > 10000 | 0.825 | 6470 |
| SK-N-AS (neuroblastoma, adherent) | 0.722 | 14.9 |  |  | 0.965 | > 200 | 0.942 | > 10000 | 0.625 | 1460 |
| SK-N-SH (neuroblastoma, adherent) | 0.382 | 1.48 | 0.861 | 1660 | 0.986 | > 200 | 0.976 | > 10000 |  |  |
| SK-UT-1 (soft tissue, adherent) | 0.413 | 1.85 | 0.927 | > 2000 | 0.987 | > 200 | 0.96 | > 10000 |  |  |
| SKN (uterus, adherent) | 0.697 | 12.6 | 0.738 | 701 | 0.981 | > 200 | 0.939 | > 10000 |  |  |
| SNU-449 (liver, adherent) | 0.955 | > 50 | 0.946 | > 2000 | 0.942 | > 200 | 0.966 | > 10000 |  |  |
| SNU-C1 (large intestine, suspension) | 0.917 | > 50 | 0.979 | > 2000 | 0.81 | 173 | 0.937 | > 10000 |  |  |
| ST486 (Burkitt lymphoma, suspension) | 0.953 | > 50 | 0.818 | 969 | 0.671 | 35.2 | 0.989 | > 10000 |  |  |
| SU-DHL-4 (B-cell lymphoma, suspension) | 0.901 | 32.1 | 0.997 | > 2000 | 0.997 | > 200 | 0.997 | > 10000 |  |  |
| SU-DHL-6 (B-cell lymphoma, suspension) | 0.767 | 14.2 | 0.953 | > 2000 | 0.632 | 26.2 | 0.944 | > 10000 |  |  |

IC50 is the fitted dose that halves viability relative to control wells, and lower means more sensitive; fits outside the tested doses are given as limits. AUC sums up the same curve from the lowest dose to the 256-fold higher top dose; it is 1 without any effect and falls as sensitivity rises. For some of these results: Any top dose called inferred was derived from the fitted curves, not read from the paper.
